Test results: paper PMC4336329 (PLoS ONE, 2015)
Among all 310,000 compounds or so, about 14,000 (4.5%) showed an effect of 50% or more. Effects have a minus sign here. This is one part of the list.

Target: human ether-à-go-go-related gene (hERG) potassium channel (human, UniProt Q12809)
Assay: primary screen, population patch clamp on CHO cells stably expressing hERG
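Also: peak tail current of the secondary pulse compared with the same well before compound.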

Sequence of human ether-à-go-go-related gene (hERG) potassium channel (Q12809 whole entry, looked up): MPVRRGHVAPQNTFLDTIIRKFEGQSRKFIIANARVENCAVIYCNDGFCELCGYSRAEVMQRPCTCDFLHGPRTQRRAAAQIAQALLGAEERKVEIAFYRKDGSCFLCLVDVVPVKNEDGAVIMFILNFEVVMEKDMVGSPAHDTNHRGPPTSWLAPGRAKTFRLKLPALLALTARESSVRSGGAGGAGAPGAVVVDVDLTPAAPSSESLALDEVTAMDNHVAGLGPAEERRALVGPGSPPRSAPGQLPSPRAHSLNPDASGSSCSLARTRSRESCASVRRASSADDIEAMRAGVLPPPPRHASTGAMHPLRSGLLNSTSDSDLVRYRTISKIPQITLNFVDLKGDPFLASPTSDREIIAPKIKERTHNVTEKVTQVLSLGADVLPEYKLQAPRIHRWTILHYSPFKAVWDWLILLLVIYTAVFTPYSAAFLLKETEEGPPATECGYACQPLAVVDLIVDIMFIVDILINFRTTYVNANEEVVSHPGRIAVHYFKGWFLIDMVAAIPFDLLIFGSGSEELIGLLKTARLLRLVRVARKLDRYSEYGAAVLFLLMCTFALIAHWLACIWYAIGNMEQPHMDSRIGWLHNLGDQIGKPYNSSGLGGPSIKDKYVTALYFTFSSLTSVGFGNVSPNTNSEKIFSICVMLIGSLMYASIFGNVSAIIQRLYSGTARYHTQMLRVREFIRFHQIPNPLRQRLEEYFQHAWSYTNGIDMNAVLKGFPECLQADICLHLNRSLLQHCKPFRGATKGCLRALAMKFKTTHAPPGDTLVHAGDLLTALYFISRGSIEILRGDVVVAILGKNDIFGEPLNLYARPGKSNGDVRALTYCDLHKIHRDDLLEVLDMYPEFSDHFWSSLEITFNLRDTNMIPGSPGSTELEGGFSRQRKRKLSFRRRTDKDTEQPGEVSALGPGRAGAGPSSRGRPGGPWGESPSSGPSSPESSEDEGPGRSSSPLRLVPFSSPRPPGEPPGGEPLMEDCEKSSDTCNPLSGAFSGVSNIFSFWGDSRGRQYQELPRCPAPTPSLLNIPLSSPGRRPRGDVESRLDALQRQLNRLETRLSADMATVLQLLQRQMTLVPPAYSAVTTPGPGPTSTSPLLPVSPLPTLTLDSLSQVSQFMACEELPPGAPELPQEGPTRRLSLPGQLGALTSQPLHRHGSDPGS

Row | SMILES | hERG current change (%, negative = inhibition) at 10uM [%]
1 | CCCCC1=CC2=CC(=O)C(C)(OC(=O)CC)C(=O)C2=CO1 (centres unmarked) | 8.53
2 | COc1ccc(CC(=O)N/N=C(\C)CC(=O)Nc2cccc(F)c2)cc1 | 12.2
3 | O=C(CCl)N1CCCC1c1ccc2c(c1)OCCO2 (centres unmarked) | 18.7
4 | CCc1noc(C)c1C(=O)NNC(=O)COc1ccccc1C | 6.26
5 | Cc1cc(C)cc(NC(=O)CSc2nc3c(oc4ccccc43)c(=O)n2-c2ccccc2)c1 | -11.1
6 | Cc1csc(SCC(=O)N2CCN(S(=O)(=O)c3ccc(Cl)cc3)CC2)n1 | -20.9
7 | CN1CC2(C)OC(=O)C(Cl)=C2CC1c1ccccc1 (centres unmarked) | 11.3
8 | Cc1cc(-c2ccc(Cl)cc2)c2cnn(C(C)C)c2n1 | 19.5
9 | CC(C)C(O)(C#CCN1CCCCC1)c1ccccc1.Cl (centres unmarked) | -15.7
10 | O=C1OCCN1P(=O)(c1ccccc1)c1ccccc1 | 10.4
11 | C=CCOc1ccc(C2N3CC4(CC)CN2CC(CC)(C3)C4=O)cc1 (centres unmarked) | -18.3
12 | CN(C)S(=O)(=O)c1cccc(NC(=O)c2ccc3c(c2)S(=O)(=O)N=C2CCCCCN23)c1 | 19.4
13 | CCOc1c(C(N)=O)cc([N+](=O)[O-])cc1[N+](=O)[O-] | 3.7
14 | Cc1cc(C)nc(NS(=O)(=O)c2ccc(NC(=O)CN3C(=O)S/C(=C\c4ccccc4)C3=O)cc2)n1 | 2.15
15 | CC(=O)Nc1ccccc1P(=O)(c1ccccc1)c1ccccc1OC(C)=O (centres unmarked) | 13.4
16 | COc1ccc(C(=O)N2CCN(C(=O)c3cc(OC)c(OC)c(OC)c3)CC2)cc1 | -17.4
17 | Cc1ccc(C(=O)n2c3ccccc3c3ccccc32)cc1 | 15.9
18 | CCc1ccc2[nH]c(=O)c(CN(CCN(C)C)C(=O)Nc3ccccc3OC)cc2c1 | -64.7
19 | COc1ccc2[nH]c(C(=O)O)c(CCN3C(=O)c4cccc([N+](=O)[O-])c4C3=O)c2c1 | 15.7

Row | SMILES | hERG current change (%, negative = inhibition) at 10uM [%]
20 | Cc1cccc(C)c1NC(=O)C1CCCN1C(=O)OC(C)(C)C (centres unmarked) | 18.5
21 | O=C(NCc1ccc(F)cc1)c1cccc2c1C(=O)c1ccc(N3CCOCC3)cc1S2(=O)=O | -14.8
22 | Cc1cccc(C(=O)NN(C)c2nc(-c3ccccc3)nnc2C(F)(F)F)c1 | -5.04
23 | Cl.N=c1n(CCN2CCCC2)c2ccccc2n1CC(O)c1ccc(Cl)c(Cl)c1 (centres unmarked) | -91.4
24 | Cn1c(=O)c2c(nc(NCCc3ccccc3)n2Cc2ccccc2)n(C)c1=O | 7.52
25 | O=C(Oc1ccc2ccccc2c1)c1cncc(Br)c1 | -11.6
26 | COc1ccccc1-c1cc(C(=O)Nc2ccc(F)cc2F)no1 | 2
27 | COc1ccc(-c2noc(CNC(=O)c3ccc4c(c3)OCO4)n2)cc1 | -21.4
28 | O=C(CC1CCCCC1)NCc1cn2ccsc2n1 | 15
29 | CCc1nnc(NC(=O)CSc2nnc(Cc3cccn3C)n2CCOC)s1 | 8.01
30 | O=C(NCC(c1cccs1)N1CCOCC1)c1ccc([N+](=O)[O-])cc1 (centres unmarked) | -13.7
31 | O=C(NCC1CCCN1S(=O)(=O)c1cccs1)C(=O)Nc1cccc(F)c1 (centres unmarked) | -15.2
32 | CCOc1cc(/C=N/NC(=O)c2ccncc2)ccc1OC(=O)c1ccc([N+](=O)[O-])cc1 | -15.7
33 | Cc1ccc(NC(=S)NC(=O)c2ccc(Br)o2)c(C)c1 | 16.2
34 | CCCCn1c(N)c(N(CC(C)C)C(=O)C2CCN(C(=O)c3ccc(Cl)cc3)CC2)c(=O)[nH]c1=O | 2.37
35 | COc1ccc(Cc2nc(C(=O)Nc3ccc(F)cc3)cs2)cc1 | 1.39
36 | COc1ccccc1NC(=O)C(C)OC(=O)CCCc1c[nH]c2ccccc12 (centres unmarked) | -10.2
37 | O=C(CCC1CCCC1)N[C@@H](Cc1ccc(O)cc1)C(=O)O | 28.8
38 | N#Cc1ccc(OCC(=O)N2CCN(c3ccc(C(F)(F)F)cn3)CC2)cc1 | -54.7

Row | SMILES | hERG current change (%, negative = inhibition) at 10uM [%]
39 | CC(=O)N1CC(C)Sc2ccc(S(=O)(=O)N3CCCCC3)cc21 (centres unmarked) | -5.32
40 | O=C(CO/N=C/c1ccccc1OC(F)F)NCc1cccs1 | -12.9
41 | CCOC(=O)c1sc2nc(C3CC3)cc(-c3ccc(OC)cc3)c2c1N | 10.8
42 | O=C(NCCCc1ccccc1)c1cc(COc2c(F)cccc2F)on1 | -6.23
43 | CC1CCCN(CC(=O)Nc2ccc(S(=O)(=O)NC3CCCCC3)cc2)C1 (centres unmarked) | -20.5
44 | CC(C)Sc1nc2ccc(Br)cc2[nH]1 | -12.2
45 | O=C(C1CCCN(S(=O)(=O)c2cnc[nH]2)C1)N1CC(=O)N(CCc2ccccc2)C(=O)C1 (centres unmarked) | 2.78
46 | O=C(CSc1ccc(-c2ccc3c(c2)OCO3)nn1)Nc1nccs1 | 12.2
47 | O=C(CN1CCN(c2ccccc2)CC1)Nc1ccc(-n2cnnn2)cc1 | -2.52
48 | O=C(Nc1ccc(N2CCOCC2)cc1)c1ccc(Cl)nc1 | -0.522
49 | COc1ccc(N(CC(=O)N/N=C/c2ccc(OC)cc2OC)S(=O)(=O)c2ccccc2)cc1 | 22.2
50 | Cc1ccc(OCCn2c(=S)[nH]c3c(N)ncnc32)cc1 | -3.01
51 | CCOc1cc(N2CCOCC2)c(OCC)cc1NC(=O)CN1CCc2ccccc2C1 | 2.76
52 | Cc1cc2c3c([nH]c2cc1S(=O)(=O)N1CCC2(CC1)OCCO2)CC(C)(C)CC3=O | -1.27
53 | O=C(O)C(Cl)(Cl)Cl | -8.67
54 | Cn1c(CC(=O)Nc2ccccc2)n[nH]c1=S | 24.9
55 | CCn1c(SCC(=O)Nc2ccccc2F)nnc1-c1cnccn1 | -34.9
56 | CCCOc1ccc(C(F)(F)F)cc1NC(=O)C1CC(=O)N(Cc2ccco2)C1 (centres unmarked) | -48.4
